For 67 cell lines, AUC and IC50 results are on record in the supplement of paper PMC4967469.

IC50 is the fitted dose that halves viability relative to control wells, and lower means more sensitive; a limit (>, <) means that the fit lies beyond the doses tested. AUC sums up the same curve from the lowest dose to the 256-fold higher top dose: 1 means no effect, lower means more sensitive. The top dose, if marked as inferred, comes from the curve model; the source does not state it.

Compound in this assay: Cc1ccc(-c2c(C(=O)CF)n(CCCO)c3ncnc(N)c23)cc1 [FMK]
The experiment in a line: Viability of human cancer cell lines after 72 h of drug (GDSC screen). To be noted: top dose inferred. Here is the method: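 Human cancer cell lines in 384-well plates, medium with 10% serum, drug for 72 h over a 256-fold dose range (nine 2-fold or five 4-fold steps up to the top dose). Adherent lines were fixed and stained with the nucleic acid dye Syto60, suspension lines read with resazurin; signal relative to control wells, capped at 0 and 100%. One two-parameter sigmoid per drug and line, fitted in a mixed model over all curves with the slope shared within a line.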
Take “QGP-1 (pancreas, adherent, top dose 20 µM)”: the AUC stood at 0.962 and the IC50 is more than 20 µM.

In the case of “QIMR-WIL (acute myeloid leukaemia, suspension, top dose 20 µM)”, the AUC was 0.955 and the IC50 was more than 20 µM.

In the case of “RC-K8 (B-cell lymphoma, suspension, top dose 20 µM)”, the AUC is 0.992 and the IC50 was more than 20 µM.

For the cell line “RCC10RGB (kidney, adherent, top dose 10.24 µM)”, the AUC is 0.94 and the 50% inhibitory concentration (IC50) was more than 10.2 µM.

“RCM-1 (large intestine, adherent, top dose 20 µM)”: the AUC was 0.974 and the IC50 is more than 20 µM.

“RD (rhabdomyosarcoma, adherent, top dose 20 µM)”: the AUC stood at 0.985 and the IC50 is more than 20 µM.

For “REH (B-cell leukaemia, suspension, top dose 20 µM)”, the AUC turned out to be 0.943 and the IC50 was more than 20 µM.

Take “RERF-GC-1B (stomach, adherent, top dose 20 µM)”: the AUC was determined as 0.971 and the IC50 was more than 20 µM.

For “RERF-LC-KJ (lung adenocarcinoma, adherent, top dose 20 µM)”, the AUC is 0.986 and the IC50 was more than 20 µM.

On to “RERF-LC-Sq1 (lung squamous cell carcinoma, adherent, top dose 20 µM)”, for which the AUC stood at 0.966 and the half-maximal inhibitory concentration (IC50) was more than 20 µM.

In the case of “RF-48 (stomach, adherent, top dose 20 µM)”, the AUC stood at 0.977 and the half-inhibitory concentration (IC50) was more than 20 µM.

For the cell line “RH-1 (rhabdomyosarcoma, adherent, top dose 20 µM)”, the AUC amounted to 0.987 and the IC50 is more than 20 µM.

In the case of RKN (ovary, adherent, top dose 20 µM), the AUC worked out at 0.978 and the 50% inhibitory concentration (IC50) was more than 20 µM.

As to “RKO (large intestine, adherent, top dose 20 µM)”, the AUC was 0.961 and the IC50 was more than 20 µM.

With “RL95-2 (endometrium, adherent, top dose 20 µM)”, the AUC worked out at 0.987 and the IC50 was more than 20 µM.

As to “RL (B-cell lymphoma, suspension, top dose 20 µM)”, the AUC was 0.95 and the IC50 is more than 20 µM.

As for RMG-I (ovary, adherent, top dose 20 µM), the AUC amounted to 0.975 and the IC50 is more than 20 µM.

On to “ROS-50 (B-cell leukaemia, suspension, top dose 20 µM)”, for which the AUC was determined as 0.972 and the half-maximal inhibitory concentration (IC50) was more than 20 µM.

As to “RPMI-2650 (head and neck, adherent, top dose 20 µM)”, the AUC worked out at 0.98 and the IC50 was more than 20 µM.

In the case of “RPMI-6666 (Hodgkin lymphoma, suspension, top dose 20 µM)”, the AUC stood at 0.925 and the IC50 is more than 20 µM.

In the case of “RPMI-7951 (melanoma, adherent, top dose 20 µM)”, the AUC came to 0.951 and the IC50 is more than 20 µM.

On to “RPMI-8226 (myeloma, suspension, top dose 20 µM)”, for which the AUC came out at 0.973 and the 50% inhibitory concentration (IC50) was more than 20 µM.

Turning to “RPMI-8402 (T-cell lymphoblastic leukaemia, suspension, top dose 20 µM)”, the AUC came out at 0.827 and the IC50 stood at 9.65 µM.

Regarding “RPMI-8866 (chronic myeloid leukaemia, suspension, top dose 20 µM)”, the AUC is 0.988 and the half-inhibitory concentration (IC50) is more than 20 µM.

In the case of “RS4-11 (leukaemia, suspension, top dose 20 µM)”, the AUC was found to be 0.978 and the IC50 was more than 20 µM.

Regarding “RT4 (bladder, adherent, top dose 10.24 µM)”, the AUC amounted to 0.981 and the IC50 is more than 10.2 µM.

In the case of “RT-112 (bladder, adherent, top dose 20 µM)”, the AUC is 0.983 and the IC50 is more than 20 µM.

“RVH-421 (melanoma, adherent, top dose 20 µM)”: the AUC stood at 0.869 and the IC50 is more than 20 µM.

Regarding “RXF393 (kidney, adherent, top dose 10.24 µM)”, the AUC is 0.965 and the IC50 is more than 10.2 µM.

Consider “Raji (Burkitt lymphoma, suspension, top dose 20 µM)”, for which the AUC is 0.989 and the IC50 is more than 20 µM.

Regarding “Ramos-2G6-4C10 (Burkitt lymphoma, suspension, top dose 20 µM)”, the AUC amounted to 0.968 and the IC50 is more than 20 µM.

Regarding “SAS (head and neck, adherent, top dose 20 µM)”, the AUC turned out to be 0.943 and the IC50 was more than 20 µM.

Turning to “SBC-1 (small cell lung carcinoma, suspension, top dose 20 µM)”, the AUC amounted to 0.985 and the IC50 was more than 20 µM.

As to “SBC-3 (small cell lung carcinoma, adherent, top dose 20 µM)”, the AUC stood at 0.931 and the IC50 is more than 20 µM.

Regarding “SBC-5 (small cell lung carcinoma, adherent, top dose 20 µM)”, the AUC came out at 0.993 and the half-inhibitory concentration (IC50) is more than 20 µM.

As to “SCC90 (head and neck, adherent, top dose 20 µM)”, the AUC worked out at 0.855 and the IC50 was more than 20 µM.

“SCC-3 (B-cell lymphoma, suspension, top dose 20 µM)”: the AUC is 0.997 and the IC50 is more than 20 µM.

For “SCC-4 (head and neck, adherent, top dose 20 µM)”, the AUC amounted to 0.982 and the IC50 was more than 20 µM.

As for “SCC-9 (head and neck, adherent, top dose 20 µM)”, the AUC came to 0.925 and the IC50 is more than 20 µM.

For “SCC-15 (head and neck, adherent, top dose 20 µM)”, the AUC is 0.977 and the IC50 was more than 20 µM.

On to “SCC-25 (head and neck, adherent, top dose 20 µM)”, for which the AUC was 0.973 and the IC50 was more than 20 µM.

In the case of SCH (stomach, adherent, top dose 20 µM), the AUC was 0.988 and the IC50 was more than 20 µM.

As to “SF126 (glioma, adherent, top dose 20 µM)”, the AUC turned out to be 0.985 and the IC50 was more than 20 µM.

Consider “SF268 (glioma, adherent, top dose 20 µM)”, for which the AUC turned out to be 0.966 and the IC50 was more than 20 µM.

For the cell line “SF295 (glioma, adherent, top dose 20 µM)”, the AUC amounted to 0.974 and the IC50 is more than 20 µM.

As to “SF539 (glioma, adherent, top dose 20 µM)”, the AUC came out at 0.984 and the IC50 was more than 20 µM.

As for “SH-4 (melanoma, adherent, top dose 20 µM)”, the AUC was determined as 0.932 and the IC50 was more than 20 µM.

In the case of “SHP-77 (small cell lung carcinoma, semi-adherent, top dose 20 µM)”, the AUC was found to be 0.991 and the IC50 is more than 20 µM.

“SIG-M5 (acute myeloid leukaemia, suspension, top dose 20 µM)”: the AUC was found to be 0.961 and the IC50 was more than 20 µM.

For the cell line SISO (cervix, adherent, top dose 20 µM), the AUC is 0.965 and the IC50 was more than 20 µM.

On to “SJRH30 (rhabdomyosarcoma, adherent, top dose 20 µM)”, for which the AUC amounted to 0.981 and the IC50 is more than 20 µM.

Consider SJSA-1 (bone, adherent, top dose 20 µM), for which the AUC turned out to be 0.983 and the IC50 is more than 20 µM.

“SK-CO-1 (large intestine, adherent, top dose 20 µM)”: the AUC was 0.989 and the IC50 is more than 20 µM.

Take “SK-ES-1 (Ewing sarcoma, semi-adherent, top dose 20 µM)”: the AUC was 0.966 and the IC50 is more than 20 µM.

“SK-HEP-1 (liver, adherent, top dose 20 µM)”: the AUC is 0.979 and the IC50 was more than 20 µM.

For “SK-LMS-1 (soft tissue, adherent, top dose 20 µM)”, the AUC came out at 0.986 and the IC50 is more than 20 µM.

Regarding “SK-LU-1 (lung adenocarcinoma, adherent, top dose 20 µM)”, the AUC was determined as 0.977 and the IC50 was more than 20 µM.

Regarding “SK-MEL-1 (melanoma, suspension, top dose 20 µM)”, the AUC was determined as 0.993 and the IC50 is more than 20 µM.

As for “SK-MEL-2 (melanoma, adherent, top dose 20 µM)”, the AUC was 0.984 and the IC50 is more than 20 µM.

“SK-MEL-3 (melanoma, adherent, top dose 20 µM)”: the AUC was found to be 0.967 and the IC50 is more than 20 µM.

Consider “SK-MEL-5 (melanoma, adherent, top dose 20 µM)”, for which the AUC turned out to be 0.969 and the IC50 was more than 20 µM.

Consider “SK-MEL-24 (melanoma, adherent, top dose 20 µM)”, for which the AUC was determined as 0.978 and the IC50 is more than 20 µM.

“SK-MEL-28 (melanoma, adherent, top dose 20 µM)”: the AUC was 0.986 and the IC50 was more than 20 µM.

For “SK-MEL-30 (melanoma, adherent, top dose 20 µM)”, the AUC is 0.958 and the IC50 is more than 20 µM.

Take “SK-MES-1 (lung squamous cell carcinoma, adherent, top dose 20 µM)”: the AUC stood at 0.977 and the IC50 was more than 20 µM.

Regarding “SK-MG-1 (glioma, adherent, top dose 20 µM)”, the AUC amounted to 0.97 and the half-maximal inhibitory concentration (IC50) is more than 20 µM.

As for “SK-MM-2 (myeloma, suspension, top dose 20 µM)”, the AUC stood at 0.986 and the IC50 was more than 20 µM.
